# Source: PubChem BioAssay AID1460 (National Center for Advancing Translational Sciences (NCATS), 2008)
# Screen size: about 270,000 compounds; about 5,800 (2.1%) were called active. The inconclusive results got no clear call from the source; some entries with a clear call stand among them for comparison. Calls follow the shape of the dose curve; as a rule, active = well fitted inhibition curve with a large enough effect; inconclusive = small, poorly fitted or top-dose-only effect; inactive = flat fitted curve, though single readings scatter. Potencies beside an inconclusive call are fits to weak or partial responses and may not hold up.
# Biological target: Microtubule-associated protein tau (Homo sapiens) (UniProt P10636)
# Experiment: qHTS for Inhibitors of Tau Fibril Formation, Thioflavin T Binding; also: nearly all actives have a fitted effect of over 55% in size
# Settings: recombinant tau K18 P301L (four-repeat tau fragment), heparin-induced fibrillization, ThT fluorescence; series mostly up to 57.4 µM; activity, negative = inhibition: at the top concentration
# Method in brief: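 Heparin-induced (20 uM) aggregation of recombinant human K18 P301L tau, 15 uM unlabeled with 0.24 uM labeled, pH 7 acetate buffer, 6 hr at 37 C with compound. Fibrils quantified by 30 uM ThT fluorescence after 1 hr ambient incubation.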
# % is scaled to controls: 0 for no effect and ±100 for the full control effect; potency is read from the fitted curve at half-maximal effect; tags tell the direction and shape of the fitted curve.
# Chain of UniProt P10636 (P10636 whole entry, looked up): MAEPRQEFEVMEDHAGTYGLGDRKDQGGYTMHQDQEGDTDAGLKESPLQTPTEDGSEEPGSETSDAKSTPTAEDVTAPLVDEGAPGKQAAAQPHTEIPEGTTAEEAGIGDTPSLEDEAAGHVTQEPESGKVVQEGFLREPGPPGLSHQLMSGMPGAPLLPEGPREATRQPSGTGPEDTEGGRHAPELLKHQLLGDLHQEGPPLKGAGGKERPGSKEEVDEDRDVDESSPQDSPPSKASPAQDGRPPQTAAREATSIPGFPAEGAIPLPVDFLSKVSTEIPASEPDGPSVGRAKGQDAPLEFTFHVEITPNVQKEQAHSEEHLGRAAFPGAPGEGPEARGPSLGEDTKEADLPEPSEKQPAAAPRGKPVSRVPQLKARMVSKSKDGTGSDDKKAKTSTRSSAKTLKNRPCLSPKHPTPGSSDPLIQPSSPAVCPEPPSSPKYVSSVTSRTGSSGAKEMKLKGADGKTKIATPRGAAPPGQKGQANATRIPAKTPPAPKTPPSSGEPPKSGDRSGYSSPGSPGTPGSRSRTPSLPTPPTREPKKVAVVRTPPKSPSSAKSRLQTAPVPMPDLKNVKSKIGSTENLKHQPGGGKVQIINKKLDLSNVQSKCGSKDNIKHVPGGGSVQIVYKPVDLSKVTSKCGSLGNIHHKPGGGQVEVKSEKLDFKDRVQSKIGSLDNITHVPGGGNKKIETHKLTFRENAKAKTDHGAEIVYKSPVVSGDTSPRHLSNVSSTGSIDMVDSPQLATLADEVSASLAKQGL
SMILES,Potency,"activity, negative = inhibition"
O=C(N/N=C/c1cc([N+](=O)[O-])ccc1O)c1ccc2c(c1)OCCO2,"inconclusive: 14.1 µM [inhibitor, partial curve]",–
O=S(=O)(NCCc1csc(-c2cccc(F)c2)n1)c1cc(F)ccc1F,–,inactive: -3.42%
COc1ccc(C(=O)Nc2cccc(OC)c2)cc1,–,inactive: -0.409%
O=C(O)CC/C(=N\Nc1ccc([N+](=O)[O-])cc1)c1ccccc1,active: 7.94 µM,–
CCCCCCOc1ccc(C(=O)O)cc1C#N,–,inactive: 0.0286%
O=C(CSc1nc2ccc([N+](=O)[O-])cc2[nH]1)NCCc1ccccc1,"inconclusive: 12.6 µM [inhibitor, partial curve]",–
O=[N+]([O-])c1ccc2c(c1)C(O)n1nc(-c3ccc(Cl)cc3Cl)nc1S2 (configuration not stated),"inconclusive: 0.224 µM [inhibitor, full curve]",–
Cc1cccc(N2CCN(Cc3nc(-c4cccc(Cl)c4)oc3C)CC2)n1,"inconclusive: 11.2 µM [inhibitor, partial curve, poor fit]",–
NC(=O)c1ccccc1NC(=O)c1ccccc1Cl,–,inactive: 4.65%
c1ccc2c(-c3nn[nH]n3)cccc2c1,–,inactive: 0.893%
Cc1cccc(COCC(Cc2ccccc2)N2CCN(C(=O)c3cccc(Cl)c3)CCC2=O)c1 (configuration not stated),"inconclusive: 31.6 µM [inhibitor, partial curve, poor fit]",–
CC1=NN(c2ccccc2)C(=O)C1C(=O)c1cc([N+](=O)[O-])cc([N+](=O)[O-])c1 (configuration not stated),"inconclusive: 12.6 µM [inhibitor, single point]",–
O=C(Nc1ccc(Cl)cc1)[C@@H]1[C@@H]2C(=O)N(c3ccc(Cl)cc3)C(=O)[C@@H]2[C@H]2C=CC=NN21,"inconclusive: 22.4 µM [inhibitor, partial curve]",–
CCOc1cc(/C=N\NC(=O)c2ccc(NC(=O)CC)cc2)ccc1OC(=O)c1ccccc1,–,inactive: -19.3%
O=S(=O)(NC1CCCCC1Oc1ccccc1)c1ccc(Cl)cc1 (configuration not stated),–,inactive: -1.01%
O=C(/C=C/c1ccc(Cl)cc1)NCCc1ccccc1,"inconclusive: 25.1 µM [inhibitor, partial curve]",–
Cc1ccccc1Cn1c(=O)n(Cc2ccco2)c(=O)c2sc3ccccc3c21,–,inactive: -7.24%
CCOC(=O)c1ccc(Nc2c(-c3ccc(OC)cc3)nc3nc[nH]n23)cc1,–,inactive: -6.05%
O=C(c1ccc(Sc2cccc(Cl)c2)c([N+](=O)[O-])c1)N1CCN(c2ccccn2)CC1,"inconclusive: 10 µM [inhibitor, partial curve]",–
CC(C)(C)OC(=O)N/N=C/c1cccc([N+](=O)[O-])c1,"inconclusive: 31.6 µM [inhibitor, single point]",–
Cc1cccc(Nc2nnc(SCc3cn4ccsc4n3)s2)c1,"inconclusive: 8.91 µM [inhibitor, partial curve]",–

SMILES,Potency,"activity, negative = inhibition"
O=C(Nc1ccc(Cl)cc1)Nc1ccc(S(=O)(=O)Nc2ncccn2)cc1,–,inactive: 10.9%
CCc1ccc(/C=N/NC(=O)c2cc(C)on2)s1,–,inactive: -8.73%
Cc1c(CN(C)C)c2c(n1C)C(=O)c1ccc(Br)cc1-2,"inconclusive: 22.4 µM [inhibitor, partial curve]",–
O=C1CC(N2CCCCCC2)C(=O)N1c1ccc(F)cc1 (configuration not stated),"inconclusive: 28.2 µM [inhibitor, single point]",–
C/C(=N\NC(=O)c1nn(C)c(C)c1Br)c1cccc(NC(=O)c2ccoc2C)c1,"inconclusive: 22.4 µM [inhibitor, single point]",–
Cc1ccc(NC(=O)c2ccc3c(O)c(S(=O)(=O)c4ccc(Cl)cc4)c(=O)[nH]c3c2)cc1,–,inactive: 12.8%
Cc1cc(=O)oc2cc(OC(=O)c3ccccc3)ccc12,"inconclusive: 2 µM [inhibitor, partial curve, poor fit]",–
O=C1NN(c2ccccc2)C(=O)/C1=C/c1ccc(-c2ccc(Cl)c(C(=O)O)c2)o1,active: 7.08 µM,–
COc1ccccc1CNC(=O)CS(=O)Cc1nc(-c2ccccc2C)oc1C (configuration not stated),"inconclusive: 35.5 µM [inhibitor, partial curve]",–
O=C(N/N=C/c1ccccn1)c1ccc(NC(=O)c2cccc([N+](=O)[O-])c2)cc1,"inconclusive: 2 µM [inhibitor, full curve]",–
COC(=O)Cc1[nH]n(-c2nc3ccccc3s2)c(=O)c1C(C)=Nc1ccc(C)cc1,"inconclusive: 39.8 µM [inhibitor, single point]",–
Cc1ccccc1Oc1nc2c(C)cccn2c(=O)c1/C=C(\C#N)C(=O)Nc1c(C)n(C)n(-c2ccccc2)c1=O,"inconclusive: 28.2 µM [inhibitor, single point]",–
NCC1O[C@@H](OC2C(N)C[C@H](N)[C@@H](O[C@H]3OC(CO)C(O)C(N)C3O)C2O)C(O)C(O)C1O (some centres not stated),"inconclusive: 3.16 µM [inhibitor, partial curve]",–
CCCCn1c(SCc2ccccc2C)nc2ccsc2c1=O,"inconclusive: 10 µM [inhibitor, partial curve]",–
Cc1ccc(N2C(=O)[C@@H]3[C@H](C2=O)C2c4ccccc4C=CN2[C@@H]3C(=O)c2ccco2)c(C)c1 (some centres not stated),active: 25.1 µM,–
Cn1c(-c2c(N)n(-c3ccccc3)c3nc4ccccc4nc23)nc2ccccc21,"inconclusive: 8.91 µM [inhibitor, single point]",–
Cc1ccc(-c2cc(-c3ccccc3)c3c(N)c(S(C)(=O)=O)sc3n2)cc1,"inconclusive: 0.794 µM [inhibitor, full curve, poor fit]",–
Cn1nnnc1SC1CC(=O)N(c2ccccc2)C1=O (configuration not stated),"inconclusive: 20 µM [inhibitor, single point]",–
O=C(N=Nc1c(O)[nH]c2ccccc12)c1cccc(S(=O)(=O)Nc2ccccc2Cl)c1,"inconclusive: 2.82 µM [inhibitor, full curve, poor fit]",–
c1ccc(-c2ccc3c(c2)c2c4n3CCN=C4CCC2)cc1,"inconclusive: 7.94 µM [inhibitor, partial curve]",–
Cc1[nH]n(-c2ccccc2)c(=S)c1C=NCCCN=Cc1c(C)[nH]n(-c2ccccc2)c1=S,"inconclusive: 15.8 µM [inhibitor, partial curve]",–
